From the supplement of paper PMC4967469

The cell lines below were run with CCCCCCCCCCCC1=C(O)C(=O)C=C(O)C1=O [Embelin] (assay: Viability of human cancer cell lines after 72 h of drug (GDSC screen)). Settings: top dose 32 µM; top dose inferred.
Procedure: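 Human cancer cell lines in 384-well plates, medium with 10% serum, drug for 72 h over a 256-fold dose range (nine 2-fold or five 4-fold steps up to the top dose). Adherent lines were fixed and stained with the nucleic acid dye Syto60, suspension lines read with resazurin; signal relative to control wells, capped at 0 and 100%. One two-parameter sigmoid per drug and line, fitted in a mixed model over all curves with the slope shared within a line.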

Cell Line | AUC | IC50 [µM]
NCI-H2085 (lung adenocarcinoma, adherent) | 0.719 | 8.88
NCI-H2087 (lung adenocarcinoma, semi-adherent) | 0.669 | 6.15
NCI-H2110 (non-small cell lung carcinoma, adherent) | 0.79 | 14.7
NCI-H2122 (lung adenocarcinoma, adherent) | 0.605 | 3.81
NCI-H2135 (non-small cell lung carcinoma, adherent) | 0.91 | > 32
NCI-H2141 (small cell lung carcinoma, suspension) | 0.867 | 27.4
NCI-H2170 (lung squamous cell carcinoma, adherent) | 0.723 | 8.89
NCI-H2171 (small cell lung carcinoma, suspension) | 0.965 | > 32
NCI-H2172 (non-small cell lung carcinoma, adherent) | 0.721 | 10.8
NCI-H2196 (small cell lung carcinoma, adherent) | 0.96 | > 32
NCI-H2227 (small cell lung carcinoma, semi-adherent) | 0.984 | > 32
NCI-H2228 (lung adenocarcinoma, adherent) | 0.845 | > 32
NCI-H2291 (lung adenocarcinoma, adherent) | 0.961 | > 32
NCI-H2342 (lung adenocarcinoma, adherent) | 0.689 | 7.21
NCI-H2347 (lung adenocarcinoma, adherent) | 0.715 | 9.36
NCI-H2405 (lung adenocarcinoma, adherent) | 0.696 | 7.58
NCI-H2444 (non-small cell lung carcinoma, adherent) | 0.935 | > 32
NCI-H2452 (mesothelioma, adherent) | 0.943 | > 32
NCI-H3122 (lung adenocarcinoma, adherent) | 0.781 | 13.7
NCI-SNU-1 (stomach, suspension) | 0.896 | > 32
NCI-SNU-5 (stomach, suspension) | 0.927 | > 32
NCI-SNU-16 (stomach, suspension) | 0.991 | > 32
NEC8 (testis, adherent) | 0.681 | 5.87
NH-12 (neuroblastoma, adherent) | 0.607 | 4.09
NK-92MI (lymphoid neoplasm, suspension) | 0.725 | 8.26

Cell Line | AUC | IC50 [µM]
NKM-1 (acute myeloid leukaemia, suspension) | 0.945 | > 32
NMC-G1 (glioma, adherent) | 0.683 | 7.34
NOMO-1 (acute myeloid leukaemia, suspension) | 0.752 | 11.9
NOS-1 (osteosarcoma, adherent) | 0.641 | 5.41
NTERA-2 cl.D1 (testis, adherent) | 0.396 | 1.04
NU-DUL-1 (B-cell lymphoma, suspension) | 0.625 | 4.1
NUGC-3 (stomach, adherent) | 0.75 | 11.6
NUGC-4 (stomach, adherent) | 0.832 | 20.5
NY (osteosarcoma, adherent) | 0.66 | 5.52
OAW-28 (ovary, adherent) | 0.794 | 19.3
OAW-42 (ovary, adherent) | 0.789 | 15.4
OCI-AML2 (acute myeloid leukaemia, suspension) | 0.684 | 5.64
OCI-AML3 (acute myeloid leukaemia, suspension) | 0.922 | > 32
OCI-AML5 (acute myeloid leukaemia, suspension) | 0.97 | > 32
OCI-LY-19 (B-cell lymphoma, suspension) | 0.71 | 7.42
OCI-M1 (acute myeloid leukaemia, suspension) | 0.986 | > 32
OCUB-M (breast, adherent) | 0.671 | 5.57
OCUM-1 (stomach, adherent) | 0.678 | 6.65
OE19 (oesophagus, adherent) | 0.885 | > 32
OE21 (oesophagus, adherent) | 0.631 | 5.27
OE33 (oesophagus, adherent) | 0.794 | 18
OMC-1 (cervix, adherent) | 0.761 | 11.8
ONS-76 (medulloblastoma, adherent) | 0.71 | 8.28
OPM-2 (myeloma, suspension) | 0.94 | > 32
OS-RC-2 (kidney, adherent) | 0.714 | 10.7

Cell Line | AUC | IC50 [µM]
OSC-19 (head and neck, adherent) | 0.854 | 26.9
OSC-20 (head and neck, adherent) | 0.684 | 7.29
OV-90 (ovary, adherent) | 0.591 | 3.81
OVCAR-3 (ovary, adherent) | 0.764 | 12.8
OVCAR-4 (ovary, adherent) | 0.763 | 17.4
OVCAR-5 (ovary, adherent) | 0.943 | > 32
OVCAR-8 (ovary, adherent) | 0.767 | 10.7
OVISE (ovary, adherent) | 0.917 | > 32
OVKATE (ovary, adherent) | 0.835 | > 32
OVMIU (ovary, adherent) | 0.78 | 16.7
OVTOKO (ovary, adherent) | 0.845 | > 32
P12-ICHIKAWA (T-cell lymphoblastic leukaemia, suspension) | 0.742 | 8.04
P30-OHK (lymphoblastic leukaemia, suspension) | 0.663 | 5.22
P31-FUJ (acute myeloid leukaemia, suspension) | 0.977 | > 32
P32-ISH (Burkitt lymphoma, suspension) | 0.62 | 3.92
PA-1 (ovary, adherent) | 0.595 | 3.43
PA-TU-8902 (pancreas, adherent) | 0.778 | 15.2
PA-TU-8988T (pancreas, adherent) | 0.621 | 4.33
PANC-02-03 (pancreas, adherent) | 0.861 | > 32
PANC-03-27 (pancreas, adherent) | 0.765 | 11
PANC-04-03 (pancreas, adherent) | 0.772 | 20.9
PANC-08-13 (pancreas, adherent) | 0.944 | > 32
PANC-10-05 (pancreas, adherent) | 0.795 | 19.8
PC-3 (prostate, adherent) | 0.797 | 19
PC-3 [JPC-3] (lung adenocarcinoma, adherent) | 0.8 | 21.8

Cell Line | AUC | IC50 [µM]
PC-14 (lung adenocarcinoma, adherent) | 0.802 | 13.8
PCI-4B (head and neck, adherent) | 0.743 | 9.48
PCI-6A (head and neck, adherent) | 0.78 | 12.9
PCI-15A (head and neck, adherent) | 0.721 | 8.52
PCI-30 (head and neck, adherent) | 0.902 | > 32
PCI-38 (head and neck, adherent) | 0.898 | > 32
PE/CA-PJ15 (head and neck, adherent) | 0.826 | 21.5
PF-382 (T-cell lymphoblastic leukaemia, suspension) | 0.693 | 6.42
PFSK-1 (medulloblastoma, adherent) | 0.808 | 17.8
PL4 (pancreas, adherent) | 0.832 | 21.4
PL18 (pancreas, adherent) | 0.693 | 6.94
PL-21 (acute myeloid leukaemia, suspension) | 0.877 | > 32
PSN1 (pancreas, adherent) | 0.722 | 7.51
QIMR-WIL (acute myeloid leukaemia, suspension) | 0.629 | 4.48
RC-K8 (B-cell lymphoma, suspension) | 0.89 | 28.3
RCC10RGB (kidney, adherent) | 0.895 | > 32
RCM-1 (large intestine, adherent) | 0.795 | 18.6
RD (rhabdomyosarcoma, adherent) | 0.809 | 18.7
REH (B-cell leukaemia, suspension) | 0.745 | 9.73
RERF-GC-1B (stomach, adherent) | 0.817 | 20.7
RERF-LC-KJ (lung adenocarcinoma, adherent) | 0.717 | 8.42
RERF-LC-MS (lung adenocarcinoma, adherent) | 0.811 | 17.5
RERF-LC-Sq1 (lung squamous cell carcinoma, adherent) | 0.845 | > 32

The IC50 comes from the fitted curve, where viability falls to half of the control; fits outside the tested doses are given as limits. AUC sums up the same curve from the lowest dose to the 256-fold higher top dose; it is 1 without any effect and falls as sensitivity rises. A top dose marked as inferred is not printed in the source and was worked back from the curve model.
